Assay results reported in the supplement of paper PMC9446081.
The campaign covered roughly 39,000 compounds. About 220 (0.56%) showed activity. The list shows a part of the results.

tested on: Escherichia coli K-12 BW25113; test: relative growth (OD600 normalised to plate interquartile mean) (fraction); higher = less growth inhibition, active = 0.2 or less; settings: 50 µM; LB; incubation time: overnight (16-24 h)
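Further: static incubation at 37 °C against the wild-type strain, values averaged over two biological replicates.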

SMILES	relative growth
CO[C@H]1CN(C)C(=O)c2cc(NS(=O)(=O)c3cn(C)cn3)ccc2OC[C@@H](C)N(CCC(F)(F)F)C[C@@H]1C	inactive: 1.03
O=c1c(O)c(-c2ccc(O)cc2)oc2cc(O)cc(O)c12	inactive: 1.03
C[C@@H]1CN([C@@H](C)CO)S(=O)(=O)c2ccc(C#CCN(C)C)cc2O[C@H]1CN(C)Cc1ccccn1	inactive: 1.03
Cc1ccc(S(=O)(=O)Nc2ccc3c(c2)C(=O)N([C@@H](C)CO)C[C@@H](C)[C@H](CN(C)Cc2ccc(Cl)c(Cl)c2)OCCCC[C@@H](C)O3)cc1	inactive: 1.04
C[C@@H]1CN([C@H](C)CO)C(=O)c2cc(NC(=O)c3ccccc3)ccc2O[C@@H](C)CCCCO[C@H]1CN(C)C(=O)Nc1ccc(C(F)(F)F)cc1	inactive: 1.01
CO[C@@H]1CN(C)C(=O)c2cc(NC(=O)c3cc(C)on3)ccc2OC[C@@H](C)N(C(=O)C2CCC2)C[C@H]1C	inactive: 1.04
C[C@@H]1CN([C@H](C)CO)C(=O)c2cc(NS(=O)(=O)c3ccc(F)cc3)ccc2O[C@@H]1CN(C)S(=O)(=O)c1ccccc1	inactive: 1.05
O=C(C[C@@H]1CC[C@H]2[C@@H](COC[C@H](O)CN2Cc2cccc(C(F)(F)F)c2)O1)NCCc1ccncc1	inactive: 1.04
CC(C)(C)NCc1ccsc1	inactive: 0.992
CC(=O)[C@]1(O)Cc2c(O)c3c(c(O)c2[C@@H](O[C@@H]2C[C@@H](N)[C@H](O)[C@@H](C)O2)C1)C(=O)c1c(O)cccc1C3=O	inactive: 0.724
CN1CCN(C(=O)[C@H]2[C@H](CO)[C@H]3Cn4c(ccc(C5=CCCC5)c4=O)[C@@H]2N3S(C)(=O)=O)CC1	inactive: 0.995
COc1ccc2c3c(n(c2c1)C)[C@@H](CO)N(C[C@]13CCN(CC1)C(=O)c1cnccn1)C(=O)c1cnccn1	inactive: 1.02
Cc1c(N2CCCC2)cc2c(c1-n1cccc1)C(C)(C)CC2(C)C	inactive: 1.03
CO[C@@H]1CN(C)C(=O)c2cc(NC(=O)Nc3ccccc3)ccc2OC[C@H](C)N(C(=O)CN(C)C)C[C@H]1C	inactive: 0.992
C[C@@H]1CN([C@H](C)CO)C(=O)c2cc(NC(=O)Cn3cnnn3)ccc2O[C@H]1CN(C)Cc1ccc(-c2ccccc2)cc1	inactive: 1.02
CN(C)CCCN1c2ccccc2CCc2ccc(Cl)cc21.Cl	inactive: 0.875
COc1ccc(S(=O)(=O)Nc2ccc3c(c2)C(=O)N([C@@H](C)CO)C[C@H](C)[C@H](CN(C)C(=O)NC2CCCCC2)OCCCC[C@@H](C)O3)cc1	inactive: 0.993
O=C1c2ccccc2[C@@]2(Cc3ccccc3N(C3CC3)C2=O)[C@H](c2ccc(CO)cc2)N1Cc1ccccc1Cl	inactive: 0.984
NC1CCN(C(=O)c2cc3ccccc3[nH]2)CC1	inactive: 1
CC(=O)Nc1ccc(OC(=O)c2ccccc2O)cc1	inactive: 0.995
C[C@@H]1CN([C@@H](C)CO)C(=O)c2cc(NS(=O)(=O)c3ccc(Cl)cc3)ccc2O[C@@H](C)CCCCO[C@H]1CN(C)S(=O)(=O)c1ccc(Cl)cc1	inactive: 1.04

SMILES	relative growth
CCCc1nc(C)c2c(=O)[nH]c(-c3cc(S(=O)(=O)N4CCN(CC)CC4)ccc3OCC)nn12.Cl	inactive: 0.999
C[C@H]1CN([C@@H](C)CO)C(=O)c2cccc(NS(=O)(=O)c3cn(C)cn3)c2O[C@H]1CN(C)C(=O)NC1CCCCC1	inactive: 0.994
C[C@@H]1CN([C@H](C)CO)S(=O)(=O)c2ccc(-c3cccc(C(=O)N(C)C)c3)cc2O[C@H]1CN(C)C(=O)Cc1ccccn1	inactive: 1.02
COc1ccc(NC(=O)Nc2ccc3c(c2)C(=O)N([C@@H](C)CO)C[C@@H](C)[C@@H](CN(C)C(=O)NC2CCCCC2)OCCCC[C@H](C)O3)cc1	inactive: 1.03
COc1ccccc1C(=O)Nc1ccc2c(c1)C(=O)N(C)[C@H]1CC[C@@H](CC(=O)NCc3ccc(Cl)c(Cl)c3)O[C@@H]1CO2	inactive: 1.03
CCOc1nc2ccccc2c(=O)n1CCO	inactive: 0.962
COc1ccc(S(=O)(=O)N(C)C[C@@H]2Oc3c(NC(=O)NC(C)C)cccc3C(=O)N([C@H](C)CO)C[C@H]2C)cc1	inactive: 0.981
OCc1ccccc1O[C@@H]1O[C@H](CO)[C@@H](O)[C@H](O)[C@H]1O	inactive: 0.985
C[C@H](CO)N1C[C@H](C)[C@H](CN(C)S(=O)(=O)c2ccc(F)cc2)Oc2ccc(NS(=O)(=O)c3ccc(F)cc3)cc2CC1=O	inactive: 1.01
CCCCC1C(=O)N(c2ccccc2)N(c2ccc(O)cc2)C1=O (configuration not stated)	inactive: 0.866
C[C@@H]1CN([C@H](C)CO)C(=O)c2cc(C#CC3(O)CCCC3)cnc2O[C@@H]1CN(C)C(=O)Cc1cccnc1	inactive: 0.98
C[C@@H]1CN([C@@H](C)CO)C(=O)c2cc(Br)cnc2O[C@H]1CN(C)Cc1ccc2c(c1)OCO2	inactive: 0.997
O=C(C[C@H]1C[C@H]2c3cc(NC(=O)c4ccc5c(c4)OCO5)ccc3O[C@H]2[C@@H](CO)O1)NCCN1CCCCC1	inactive: 1.01
C=CCOC(=O)[C@@H]1[C@H]2C(=O)O[C@H](c3ccccc3)[C@H](c3ccccc3)N2[C@H](c2ccc(OCCOC(=O)[C@H]3C[C@H]4C(=O)N[C@@H](CCCC[N+](C)(C)C)C(=O)N4[C@H]3c3cccc(OCCO)c3)cc2)[C@@]12C(=O)Nc1ccc(I)cc12	inactive: 1.08
O=C(CCBr)N1CCN(C(=O)CCBr)CC1	inactive: 0.981
NCCCCCCNC(=O)[C@@H]1C[C@@H]2C(=O)N[C@@H](CCCCN)C(=O)N2[C@@H]1c1cccc(OCCO)c1	inactive: 0.995
C[C@@H]1CCCCO[C@H](CN(C)Cc2ccc(C(F)(F)F)cc2)[C@@H](C)CN([C@@H](C)CO)C(=O)c2cc(NC(=O)Nc3ccc(C(F)(F)F)cc3)ccc2O1	inactive: 1.02
C[C@H](CO)N1C[C@H](C)[C@H](CN(C)S(=O)(=O)c2ccccc2)OCCCC[C@H](C)Oc2ccc(NC(=O)NC3CCCCC3)cc2C1=O	inactive: 1.01
COc1ccc(NC(=O)Nc2cccc3c2O[C@H](CN(C)Cc2ccc(Oc4ccccc4)cc2)[C@@H](C)CN([C@H](C)CO)C3=O)cc1	inactive: 0.99
Cl.Fc1ccc(C2CCNCC2COc2ccc3c(c2)OCO3)cc1 (configuration not stated)	inactive: 0.844
C[C@H](CO)N1C[C@H](C)[C@@H](CN(C)S(=O)(=O)c2cn(C)cn2)Oc2ccc(NC(=O)Cc3ccccc3)cc2CC1=O	inactive: 1.01

SMILES	relative growth
COc1ccc(OC)c([C@@H](O)CNC(=O)CN)c1	inactive: 0.878
C[C@@H](O)C#Cc1ccc2c(c1)O[C@@H](CN(C)C(=O)Nc1ccccc1)[C@@H](C)CN([C@@H](C)CO)S2(=O)=O	inactive: 0.989
C[C@H]1CN([C@@H](C)CO)C(=O)c2cc(NC(=O)Cn3cnnn3)ccc2O[C@H]1CN(C)Cc1ccc(Oc2ccccc2)cc1	inactive: 1.01
O[C@H]([C@H](O)[C@@H]1CO1)[C@H]1CO1	inactive: 0.797
COc1ccc(S(=O)(=O)Nc2ccc3c(c2)C(=O)N([C@@H](C)CO)C[C@@H](C)[C@H](CN(C)C(=O)Nc2c(C)noc2C)OCCCC[C@@H](C)O3)cc1	inactive: 1
C[C@@H]1CN([C@@H](C)CO)C(=O)Cc2cc(NC(=O)CCCCCC(=O)Nc3ccccc3N)ccc2O[C@@H]1CN(C)S(=O)(=O)c1cn(C)cn1	inactive: 0.982
COc1cc(OC)c2ccc(=O)oc2c1	inactive: 1.05
C[C@H]1CN([C@@H](C)CO)C(=O)c2cc(/C=C/c3ccccc3)cnc2O[C@H]1CN(C)C(=O)CN1CCOCC1	inactive: 1.01
C[C@H](CO)N1C[C@H](C)[C@@H](CN(C)C(=O)Nc2ccc(F)cc2)Oc2c(NC(=O)c3nc4ccccc4s3)cccc2C1=O	inactive: 0.988
COc1ccc(S(=O)(=O)Nc2ccc3c(c2)C(=O)N([C@@H](C)CO)C[C@H](C)[C@@H](CN(C)S(=O)(=O)c2cccs2)O3)cc1	inactive: 0.86
C[C@@H]1CN([C@H](C)CO)C(=O)c2cc(NC(=O)Nc3cccc4ccccc34)ccc2O[C@@H](C)CCCCO[C@H]1CN(C)Cc1ccc2c(c1)OCO2	inactive: 0.992
C[C@H](CO)N1C[C@H](C)[C@H](CN(C)Cc2ccc(Oc3ccccc3)cc2)Oc2ccc(NC(=O)NC3CCCCC3)cc2C1=O	inactive: 0.972
C[C@H]1CN([C@@H](C)CO)C(=O)c2cccc(NC(=O)NC3CCCCC3)c2O[C@H]1CN(C)Cc1ccc(Cl)c(Cl)c1	inactive: 0.953
O=C(O)c1ccncc1	inactive: 0.986
C[C@@H]1CN([C@H](C)CO)S(=O)(=O)c2ccc(-c3cccnc3)cc2O[C@H]1CN(C)C(=O)NC1CCCCC1	inactive: 0.997
Cc1noc(C)c1S(=O)(=O)N(C)C[C@@H]1Oc2ccc(NC(=O)Nc3ccccc3)cc2CC(=O)N([C@H](C)CO)C[C@@H]1C	inactive: 1
O=C(C[C@@H]1C[C@H]2c3cc(NS(=O)(=O)c4ccc(F)cc4)ccc3O[C@H]2[C@H](CO)O1)NCc1ccncc1	inactive: 0.999
C[C@H]1CN([C@@H](C)CO)C(=O)c2cc(NC(=O)CCCN(C)C)ccc2O[C@@H]1CN(C)C(=O)Nc1ccccc1	inactive: 1.01
COc1ccc(NC(=O)Nc2ccc3c(c2)C(=O)N([C@H](C)CO)C[C@@H](C)[C@@H](CN(C)Cc2ccncc2)OCCCC[C@@H](C)O3)cc1	inactive: 1.02
COCCOC(=O)N1C(=O)[C@@]2(c3ccccc31)[C@H](C(=O)N1CCc3cc(OC)c(OC)cc3C1)[C@H]1C(=O)O[C@H](c3ccccc3)[C@H](c3ccccc3)N1[C@@H]2c1ccc(O)cc1	inactive: 1.02
